# Read counts are not given, so values of variants with three or more changes are uncertain.
# B1: LINE1-full (parent)
# chain: UACGUAGGUGGUUUUCCCCUGAUAGUGCUAAGGGGGCCUGGAAGUUUGGACUGGGCAGAGCUCAACACAGCGUGGCAAAGUGGCUGUGGCUAGACUGCCUCUCUGGAUUCCUCGUCACUCAGCAGGGCAUCUCUGAGAGAAAUGCC
# Variants of: B1
# Experiment: self-cleavage, relative activity (ratio to wild type); higher = more cleavage; in vitro, sequencing; the parent is a self-cleaving ribozyme
row,Variant,self-cleavage
1,C28A U81C U108A,0.55
2,G25C A42G A65G,0.29
3,U26C A64U A94G U112C,0.08
4,U29A C90A A121C,0.04
5,A24U C28U C111U A124G,0.85
6,U26A G58C U62C U119C A136G,0.33
7,U26A U45C U100C C145U,0.89
8,C28U U47A A94U U115C,0.19
9,U26A A117G G122C,1.34
10,U26C A43G A57G,0.27
11,G27A A57G A79G C145G,0.5
12,G27A A50G A138G,0.37
13,U26A C38U U73C,1.72
14,G27A A50G C51U C61G A79G A94G U108A A124C A138G,0
15,U26G G89A U96C A124U,0.05
16,C28G A121G U134C,2.53
17,U26C G82U A138U,1.65
18,U26C A31G A57U A69U,0
19,U26C G33A A57G G74A A121U,0.97
20,U26A U39C U45C U47C,0
21,U26C A30G G127A A129G U130C,1.31

row,Variant,self-cleavage
1,U29C A42G C90U,0.05
2,U26A U52G A138G A142G,0.5
3,U26A G72A G75C,0.12
4,G25A G93A A124G,0.04
5,U26C A117U U119C,2.2
6,U29A A67G A121U C146U,0.79
7,U26A U112C A124G,0.64
8,A24U U62C U108G,0
9,U26A U47A A59G G60A A69U A117G A138G,0.07
10,A24U C84A G127U U132A,0.1
11,G25U A124G A141G,1.27
12,U26C U62A U115C,0.15
13,U26C G55A U96C,0
14,U26C A65G A138U,0.11
15,U26C G53C A141G,1.35
16,U26C U112C G137U,1.51
17,U26A U52C U73C A141G,1.23
18,U26C A64G U104C G114A,0.08
19,U26C A30G U39A U62C,1.58
20,U26C A67C G75U,0.02
21,U26A U73C A77U A94G,0.53

row,Variant,self-cleavage
1,U26C U45A U52A U109A U134G A141G,1.13
2,A24U U26A U73C,0.87
3,U26A U62C A141G,0.14
4,U26C A124U U134A,1.56
5,U26A G70A U134G,0.09
6,U26C G54A A107U,0.7
7,U26C U96A A124U,0.04
8,U26C A78G U109C,0.71
9,U26C U96A U115A,0.03
10,G27A U46A A65G A78G,0.03
11,U26C U52C G126A A129G,1.43
12,U26A A64G U73A,0.29
13,U26C G97A C111A,0.08
14,U26A G55C U119C,0.31
15,U26C G70U U91C,0.05
16,U26C C56U A69U A79U A124G U132A,0
17,G27A G93A C128U,0.02
18,A24U U46C U52C,0
19,U26C U96A A138U,0.04
20,U26C C61U U104A,0.04
21,U26A A77U A140G,0.38

row,Variant,self-cleavage
1,U26C C66A U96A A124G,0.02
2,U26C A43G U46A U81C A129C,2.45
3,G27A U73A U87C U115C,0.13
4,U26C A121G A141G U143C,0
5,C28A G34A G40A A92G,0.11
6,U26C A50G A79G,0
7,A24U U45C U102C,1.71
8,G27A U39C A77G U87A,0.03
9,G25A A31G A65G A124G A129G A141G,0
10,A24G U115A A138G,1.88
11,U26C A64G U96C,0
12,A24U U87G A121U,0.08
13,U29A U115A A129G,2.12
14,U26A A57G U73C U130C,0.84
15,A24U C37G A67G,0.36
16,U26C A42G A138U,1.25
17,U26C C120U G126C A140U,1.62
18,U26A A42G A65G,0.17
19,A24U A67C U104A,0.1
20,U26C A94U A107G,0.54
21,U26G A31G G53A A136U A140G,2.04
